Laboratory results taken from article PMC12136788.
The list shows a part of the results.

T1: UNK ZnF1-3 (human, UniProt Q9C0B0 31-174)
T1 sequence: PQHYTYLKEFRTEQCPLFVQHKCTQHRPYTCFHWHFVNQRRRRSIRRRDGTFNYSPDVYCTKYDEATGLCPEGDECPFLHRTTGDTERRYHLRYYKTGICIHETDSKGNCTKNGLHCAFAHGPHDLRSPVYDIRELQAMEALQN

B1: chr9:98468509:98468510:+_ENSMUSG00000032458_ENSMUST00000035033|mus_mus|motif|central (ssRNA)
RNA: GGGAGUUCUACAGUCCGACGAUCAAACGUCUUCACCAGUGUCUGAGUUUCAUGAUUCCAAACACACACACUGCCAUUGUAAAGACGGGCCAACAUCCAUGGCUCUGUGGGAUGCAAAUCCACGCUCUUAACUCGGUCAGACCUCAACAGAGGAUUGAGCAUCA
B2: chr4:17845017:17845018:+_ENSG00000109805_ENST00000514176|hu_mus|hu_hu_hu_mus_False|8_98 (ssRNA)
RNA: GGGAGUUCUACAGUCCGACGAUCGCUCUCUUAACUUGAUCUUCAUUUAAGGAACUCUGCAAGGUUAAGUUUACUUUUCUGUAGCGCAGCUGUUUUGGCUCGUCUGGGUAAUCUCAUCUUCAUUUCUAUUCUGGUUCCAUGAUCCAACAGAGGAUUGAGCAUCA
B3: 53326365_53327111_1920_CDS_ENSG00000073712_ENST00000341590|human|control|control (ssRNA)
RNA: GGGAGUUCUACAGUCCGACGAUCGGCAUCCAUCCGAAUCAGUCUGUUGUAUGCAAUUCCAAUAAGUUCUUCUUUUUUGCCCCCUUGGAACCUUGCAAUGAAGUGAGUGAUGCCAAAUUCAGGUAGUGACUGCCAAGCUUGAAUCAACAGAGGAUUGAGCAUCA
B4: chr8:95500983:95500984:-_ENSG00000164944_ENST00000437199|hu_hu|hu_hu_hu_mus_True|18_78 (ssRNA)
RNA: GGGAGUUCUACAGUCCGACGAUCAGAACACAUCUAUCGAGUAAAGGACCGUACAUGGACGACCUCUCCACUGCCUCCACUAACAAACUUUCCUCUCGAGCCUCCACUGCCGCUAUUUUGCACUAGCCAGGACGGUCCCAGGCCCAACAGAGGAUUGAGCAUCA
B5: chr13:55314840:55314841:+_ENSMUSG00000021488_ENSMUST00000099490|mus_mus|FALSE|FALSE (ssRNA)
RNA: GGGAGUUCUACAGUCCGACGAUCAUCACUUUUUGCAGGGUCUUGAAAGGAUUCUGAUCCAUCAGCAGACCCACUUAAAUAUUCUACAUUGAUCAUGGAGGCCAAAUCCUGUAGUCUCCGCAGUGGAAUGUAACAAGAUGGAGACAACAGAGGAUUGAGCAUCA
B6: chr10:61154552:61154553:+_ENSMUSG00000020088_ENSMUST00000020285|mus_hu|FALSE|FALSE (ssRNA)
RNA: GGGAGUUCUACAGUCCGACGAUCGAGCUCUGGCCUCCAUAUCUGUUCAUAAUUUUAUGAAGUAUCUAAAUGUCAUUCAUUAGUUUAAAAAAAAAAAAGAAUAGAAAACUCUGGACCAAGUAAAUUGUGAACUCAAAAAGUUAGCAACAGAGGAUUGAGCAUCA
B7: chr4:115894766:115894767:+_ENSMUSG00000028698_ENSMUST00000030464|mus_hu|mus_mus_mus_hu_True|58_108 (ssRNA)
RNA: GGGAGUUCUACAGUCCGACGAUCUUCACACGGAAAUUGUACUUCGGGUUUUCCAACGGCCAGUACCAGUCCGGCCAACUACUAGGAACAGGGUCCUCCCCCUCUCUCCUACAGAACACAACAAAAUGCCCCCGAACUUUCAAGCAACAGAGGAUUGAGCAUCA
B8: chr2:32989838:32989839:-_ENSMUSG00000038831_ENSMUST00000042615|mus_hu|FALSE|FALSE (ssRNA)
RNA: GGGAGUUCUACAGUCCGACGAUCUGUUGAGCCUUUUGAUGCCUUUCUAGAGGAAUCUAUGCACAGGAUUUAUACUCAGGACUAGGAGAGAGGCAAAGUCUUGCCUAAGGAGAUAGGUGUGGUGGGGACUGUUUGUUGAGUGGUCAACAGAGGAUUGAGCAUCA
B9: chr9:136895555:136895556:-_ENSG00000169925_ENST00000303407|hu_mus|FALSE|FALSE (ssRNA)
RNA: GGGAGUUCUACAGUCCGACGAUCACCGUUUUUUUUUUUUUUUUACUCUGUGGUGUUGAGGCCGGCAUUGCAAAAAACAAGCUAAACUACUUACAAUGGACUCAUUUUCAGUAACUGACAUUUACAGGAAUAUACUAGAAACGGCAACAGAGGAUUGAGCAUCA
B10: chr1:66463027:66463028:+_ENSMUSG00000015222_ENSMUST00000114013|mus_mus|mus_mus_mus_hu_True|28_48 (ssRNA)
RNA: GGGAGUUCUACAGUCCGACGAUCUUUUCUUUCAGGAGUGGAAAUUCUGCCUCUCCCGGUUUUAAAAGGCUUUUCUUUUCUAUGUUUCUCGAGAGACGAUCUCCGAGCAUCCUUCUCAGCUUUCUCCUCUUUAGGAAUAGUUUCCAACAGAGGAUUGAGCAUCA
B11: chr10:126435856:126435857:+_ENSMUSG00000078429_ENSMUST00000105256|mus_hu|motif|central (ssRNA)
RNA: GGGAGUUCUACAGUCCGACGAUCAGUGGAAACCCUUACCUGACCCUUUUCCAAACUGGUCCUGUGUCCAAAGCUCCCCCGGUGAGAGGGACACGAACAUCAGGCUUUUGAUUUAGAAGCCCAAUCAGAGAGACACACUGUGUCCAACAGAGGAUUGAGCAUCA
B12: chr18:43482294:43482295:-_ENSMUSG00000024501_ENSMUST00000121805|mus_mus|motif|central (ssRNA)
RNA: GGGAGUUCUACAGUCCGACGAUCUGACAGAGUUUUGCCUAGCAUUUGAGAGGCCCUGGACUCAAUUGUCCAGCUCGGCAAAAUGAAAUAAACAGAAAUUCCCCACCUCAAAAAAAAAAAACAACAACAACAACAACAAAAAACCAACAGAGGAUUGAGCAUCA
B13: chr1:182792527:182792528:+_ENSMUSG00000038806_ENSMUST00000038091|mus_mus|FALSE|FALSE (ssRNA)
RNA: GGGAGUUCUACAGUCCGACGAUCCGAAGUCCCAGGAGCAUCCUCACUGUCAUCCUCUGAGCUGUCCUCUGAGCUUCCAGUACUGGACCCCUCGGCAGCCUCCAGCCCAUCCAUGCCCAACCAAAAGCAUUUCCUUUUCCUUUUCAACAGAGGAUUGAGCAUCA
B14: 9950424_9950544_840_CDS_ENSG00000101558_ENST00000340541|human|control|control (ssRNA)
RNA: GGGAGUUCUACAGUCCGACGAUCUGAUAGCUUCAUCAUUUCUCCCUGAAGUCUUUUACACUCUUCCAUUAGUUUCCUUGUUUCGGUAUCAUUAAGUGAAACACUGUGUGGUUUUGGCAUAGGUCCAUCUUGCUUAGAUGCAUUCAACAGAGGAUUGAGCAUCA

Target: T1, UNK ZnF1-3
Assay: nsRBNS (natural sequence RNA bind-n-seq); RBNS binding buffer (assumed for nsRBNS): 25 mM Tris pH 7.5, 150 mM KCl, 3 mM MgCl2, 0.01% Triton X-100, 500 ug/ml BSA, 20 U/ml SUPERase-In, 4 C; UNK is unkempt and MSI1 is Musashi-1; names of the RNAs are library labels; protein concentration not given here; high values mean tight binding

| Binder | binding signal [enrichment R] |
| --- | --- |
| B1 | 0.561 |
| B2 | 0.405 |
| B3 | 1.07 |
| B4 | 1.62 |
| B5 | 0.694 |
| B6 | 1.65 |
| B7 | 0.946 |
| B8 | 1.3 |
| B9 | 1 |
| B10 | 0.525 |
| B11 | 0.921 |
| B12 | 3.24 |
| B13 | 0.804 |
| B14 | 0.497 |
